Results taken from paper PMC4336329 (PLoS ONE, 2015).
Hit rate of the full screen: of about 310,000 compounds, about 14,000 (4.5%) showed an effect of 50% or more. The effect is printed as a negative number. The list shows a part of the results.

target: human ether-à-go-go-related gene (hERG) potassium channel (human, UniProt Q12809); assay: primary screen, population patch clamp on CHO cells stably expressing hERG
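Further: peak tail current of the secondary pulse compared with the same well before compound.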

human ether-à-go-go-related gene (hERG) potassium channel, sequence (Q12809 whole entry, looked up): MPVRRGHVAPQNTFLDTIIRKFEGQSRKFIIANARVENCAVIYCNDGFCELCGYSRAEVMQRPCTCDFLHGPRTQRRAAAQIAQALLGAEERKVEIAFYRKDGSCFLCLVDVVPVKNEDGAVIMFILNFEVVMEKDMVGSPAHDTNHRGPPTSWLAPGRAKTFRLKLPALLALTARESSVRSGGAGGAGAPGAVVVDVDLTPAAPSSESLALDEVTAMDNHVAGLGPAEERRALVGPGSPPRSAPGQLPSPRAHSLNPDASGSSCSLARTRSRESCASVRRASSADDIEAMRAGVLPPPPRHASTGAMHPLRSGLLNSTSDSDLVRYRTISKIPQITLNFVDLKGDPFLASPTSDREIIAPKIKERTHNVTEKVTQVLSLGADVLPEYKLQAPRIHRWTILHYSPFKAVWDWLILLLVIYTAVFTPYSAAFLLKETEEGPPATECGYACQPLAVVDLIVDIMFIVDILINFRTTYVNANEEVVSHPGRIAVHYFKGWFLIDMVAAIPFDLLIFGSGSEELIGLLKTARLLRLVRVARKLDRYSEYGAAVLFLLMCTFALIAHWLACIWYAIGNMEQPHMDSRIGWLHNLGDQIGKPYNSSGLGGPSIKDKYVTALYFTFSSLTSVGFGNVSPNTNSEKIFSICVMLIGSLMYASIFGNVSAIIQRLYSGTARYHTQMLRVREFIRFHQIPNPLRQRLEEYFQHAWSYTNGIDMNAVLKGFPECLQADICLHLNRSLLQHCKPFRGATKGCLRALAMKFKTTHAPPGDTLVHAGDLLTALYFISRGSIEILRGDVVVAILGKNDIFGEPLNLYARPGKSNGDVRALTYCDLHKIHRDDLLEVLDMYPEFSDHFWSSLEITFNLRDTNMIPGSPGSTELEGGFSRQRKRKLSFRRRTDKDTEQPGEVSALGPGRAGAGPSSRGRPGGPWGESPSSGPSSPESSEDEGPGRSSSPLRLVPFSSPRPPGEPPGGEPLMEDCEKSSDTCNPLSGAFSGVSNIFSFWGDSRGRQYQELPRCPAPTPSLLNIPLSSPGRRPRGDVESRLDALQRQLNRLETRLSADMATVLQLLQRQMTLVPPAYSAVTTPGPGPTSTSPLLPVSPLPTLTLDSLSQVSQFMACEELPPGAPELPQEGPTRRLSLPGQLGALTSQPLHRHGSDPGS

Compound	hERG current change (%, negative = inhibition) at 10uM [%]
Cc1cc(C)nc(N2CCCC(C(=O)NCC(c3ccccc3)c3ccccc3)C2)n1 (stereo not shown)	-0.251
Cc1c(C(=O)NC2=NCCS2)cccc1[N+](=O)[O-]	11.4
CCN1C(=O)/C(=C/c2ccc(C)s2)NC1=S	-2.86
CC(C)(C)NC(=O)CN(C(=O)CNC(=O)c1cccs1)c1ccccc1F	10.2
S=c1[nH]nc(Cc2ccc(Cl)cc2)o1	18.1
COC(=O)c1cccc(COC(=O)c2ccc(CS(=O)(=O)c3ccc(C)cc3)cc2)c1	2.77
O=C(NC1CCCC1)C(c1ccccn1)N(Cc1ccccc1F)C(=O)c1csnn1 (stereo not shown)	-2.45
Cc1ccc(S(=O)(=O)N(CC(O)CN2C(=O)NC(C)(C)C2=O)c2cccc(C)c2)cc1 (stereo not shown)	10.4
CCOc1cc(S(=O)(=O)N2CCC(C(N)=O)CC2)ccc1F	-16.4
CCOc1ccc(NC(=S)NCc2nc3ccccc3[nH]2)cc1	-74
O=C(NCCc1ccc(F)cc1)c1coc(=O)c(Br)c1	13
COc1ccc(CNC(=O)c2ccccc2SC)cc1	-3.84
O=C(N/N=C\c1cc(Br)c(Br)o1)C1COc2ccccc2O1 (stereo not shown)	6.93
COc1ccc(CN2C(=O)C(Cc3ccccc3)Nc3ncnc(N4CCCCC4)c32)cc1.O=C(O)C(F)(F)F (stereo not shown)	-7.89
COCCCNC(=S)NNC(=O)Cn1nc(C)c(Br)c1C	14.4
Cc1cccc(N2CCN(C(=S)Nc3ccc4nc5n(c(=O)c4c3)CCCCC5)CC2)c1C	-15.6
Cc1ccc(S(=O)(=O)NCCC(=O)NCC(c2cccs2)N(C)C)cc1 (stereo not shown)	-2.07
O=C(COC(=O)c1ccc(O)cc1)Nc1nccs1	26.1
COC(=O)c1cccc(Nc2ncnc3ccc(C)cc23)c1	-20.9
Cc1ccc([N+](=O)[O-])cc1N/C=C1\CCc2ccccc2C1=O	5.38
Cc1ccc(-c2ccnc3nc(Sc4ncc(C(F)(F)F)cc4Cl)nn23)cc1	-1.35
Cc1ccc(-n2nc3c(c2NC(=O)c2ccc4c(c2)OCO4)CS(=O)(=O)C3)cc1C	1.01
O=C(c1ccc(Cl)cc1)N1CCCC(C(=O)N2CCc3ccccc3C2)C1 (stereo not shown)	-17.7
CCOc1ccc(S(=O)(=O)N(CC(=O)N2CCC(C(N)=O)CC2)c2ccc(F)cc2)cc1	-49
Cn1cc(/C=C/C(=O)N2CCCC(C(=O)c3cccc(C(F)(F)F)c3)C2)cn1 (stereo not shown)	-7.54
CCc1ccccc1NC(=O)c1cc2ncc(Br)cn2n1	9.22
CCS(=O)(=O)N1CCC(C(=O)NCc2ccccc2OC)CC1	-0.242
CCCNC(=O)N1CCN(C(=O)NCCC)CC1	10.7

Compound	hERG current change (%, negative = inhibition) at 10uM [%]
Cc1ccc(-n2cc(CNCCN3CCOC3=O)c(-c3ccc(F)cc3)n2)cc1	-63.2
COc1ccc(NS(=O)(=O)c2cccc(C(=O)NNC(=O)c3cncc(Br)c3)c2)cc1	2.21
COc1cccc2nc3cc(C)c(C)cc3nc12	-7.73
Cc1cccc(C)c1NC(=O)C1CCCNC1 (stereo not shown)	-16.9
CCOC(=O)c1[nH]c(C)c(C(=O)N2CCN(C(=O)OCC)CC2)c1CC	8.27
COc1ccc(S(=O)(=O)n2cnc3cc(C)c(C)cc32)cc1C	9.01
c1cncc(-c2nnc3sc(-c4ccco4)nn23)c1	-23.2
CC(=O)Nc1ccc(NC(=O)c2c(-c3ccccc3)noc2C)cn1	15.9
COc1cc(C(=O)NNC(=O)c2ccc(NC(C)=O)cc2)cc(OC)c1OC	8.67
CC1CCCN(c2c([N+](=O)[O-])cc(C(=O)O)cc2[N+](=O)[O-])C1 (stereo not shown)	9.39
CCc1n[nH]c(=O)c2cc3cc(OC)ccc3n12	6.75
COc1cc2c(cc1OC)CN(C(=O)C1CCCN1S(=O)(=O)c1ccc(F)cc1)CC2 (stereo not shown)	11.6
Cc1ccccc1C(CC(=O)c1cccs1)C(C#N)C#N (stereo not shown)	20.2
CC(=O)N1CCN(Cc2nc3cc(NC(=O)Cn4nc(C)c5ccccc5c4=O)ccc3n2C)CC1	17.9
CC(C)OCCCNC(=O)c1ccc(CS(=O)(=O)c2cccc(C(F)(F)F)c2)o1	-4.95
COc1cc(OC)cc(C(=O)NNC(=O)CCCOc2ccccc2)c1	-18.4
CCN(CC)C(=O)C(C)OC(=O)COc1ccc(Cl)cc1C (stereo not shown)	-20.3
Cc1cccc(OCC(O)Cn2c(-n3nc(C)cc3C)nc3c2c(=O)[nH]c(=O)n3C)c1 (stereo not shown)	-17.5
COc1ccc(Cl)cc1NC(=O)CN(C)C(=O)CCNC(=O)c1ccccc1OC	-9.08
Cc1cc(NC(=O)CCC(=O)N(c2ccccc2)C(C(=O)NC2CCCCC2)c2cccs2)no1 (stereo not shown)	4.02
COc1cc(NC(=O)CSCC(=O)Nc2cc(OC)cc(OC)c2)cc(OC)c1	-5.08
CCOC(=O)c1ccccc1Cc1nc2ccccc2c(=O)[nH]1	-3.92
CCCCN(C(=O)c1ccc(Cl)c(S(=O)(=O)N2CCOCC2)c1)c1c(N)n(CCC)c(=O)[nH]c1=O	28.2
Cc1cc(Cl)ccc1NC(=O)C1CCN(S(C)(=O)=O)CC1	7.9
CCOC(=O)C1=C(C)NC2=C(C(=O)CC(C)(C)C2)C1c1cccc(C)n1 (stereo not shown)	-4.78
CS(=O)(=O)O.Cc1cccc(/C=C2/C(=O)/C(=C/c3ccccc3C)C3CCC2N3C)c1 (stereo not shown)	6.11
CCOc1ccc(S(=O)(=O)N(CC)CC(=O)NCc2ccncc2)cc1C	-8.61
